The source of these data is PMC9911399, “Two distinct binding modes provide the RNA-binding protein RbFox with extraordinary sequence specificity”.

Where a chain is given by its changes, count along the chain named. The list shows a part of the results.

T1: RBFOX1 RRM (Homo sapiens, UniProt Q9NWB1 109-208)
T1 sequence: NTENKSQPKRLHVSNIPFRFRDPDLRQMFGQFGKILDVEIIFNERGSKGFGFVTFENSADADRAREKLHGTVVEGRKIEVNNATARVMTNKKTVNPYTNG

B1: CACGCUA (DNA:RNA)
RNA: GGGAGACCGGAAUUCAGAUUGUCCCACGCUAUUAAAUCCCGUCGUAGCCACCA
DNA 1: CAATCTGAATTCCGGTCTCCC
DNA 2: TGGTGGCTACGACGGGATT
B2: CCUACUU (DNA:RNA)
RNA: B1 RNA with A26C, C27U, G28A, A31U
DNA 1: CAATCTGAATTCCGGTCTCCC
DNA 2: TGGTGGCTACGACGGGATT
B3: UACUAAA (DNA:RNA)
RNA: B1 RNA with C25U, G28U, C29A, U30A
DNA 1: CAATCTGAATTCCGGTCTCCC
DNA 2: TGGTGGCTACGACGGGATT
B4: UCCGAGG (DNA:RNA)
RNA: B1 RNA with C25U, A26C, C29A, U30G, A31G
DNA 1: CAATCTGAATTCCGGTCTCCC
DNA 2: TGGTGGCTACGACGGGATT
B5: UCUCCAG (DNA:RNA)
RNA: B1 RNA with C25U, A26C, C27U, G28C, U30A, A31G
DNA 1: CAATCTGAATTCCGGTCTCCC
DNA 2: TGGTGGCTACGACGGGATT
B6: GGCGUUA (DNA:RNA)
RNA: B1 RNA with C25G, A26G, C29U
DNA 1: CAATCTGAATTCCGGTCTCCC
DNA 2: TGGTGGCTACGACGGGATT
B7: GCCUUUU (DNA:RNA)
RNA: B1 RNA with C25G, A26C, G28U, C29U, A31U
DNA 1: CAATCTGAATTCCGGTCTCCC
DNA 2: TGGTGGCTACGACGGGATT
B8: GACAUGG (DNA:RNA)
RNA: B1 RNA with C25G, G28A, C29U, U30G, A31G
DNA 1: CAATCTGAATTCCGGTCTCCC
DNA 2: TGGTGGCTACGACGGGATT
B9: UAACCGA (DNA:RNA)
RNA: B1 RNA with C25U, C27A, G28C, U30G
DNA 1: CAATCTGAATTCCGGTCTCCC
DNA 2: TGGTGGCTACGACGGGATT
B10: AGGGUCA (DNA:RNA)
RNA: B1 RNA with C25A, A26G, C27G, C29U, U30C
DNA 1: CAATCTGAATTCCGGTCTCCC
DNA 2: TGGTGGCTACGACGGGATT
B11: GUUUCAG (DNA:RNA)
RNA: B1 RNA with C25G, A26U, C27U, G28U, U30A, A31G
DNA 1: CAATCTGAATTCCGGTCTCCC
DNA 2: TGGTGGCTACGACGGGATT
B12: UUACCAG (DNA:RNA)
RNA: B1 RNA with C25U, A26U, C27A, G28C, U30A, A31G
DNA 1: CAATCTGAATTCCGGTCTCCC
DNA 2: TGGTGGCTACGACGGGATT
B13: GAUUCUC (DNA:RNA)
RNA: B1 RNA with C25G, C27U, G28U, A31C
DNA 1: CAATCTGAATTCCGGTCTCCC
DNA 2: TGGTGGCTACGACGGGATT
B14: GUUAUUG (DNA:RNA)
RNA: B1 RNA with C25G, A26U, C27U, G28A, C29U, A31G
DNA 1: CAATCTGAATTCCGGTCTCCC
DNA 2: TGGTGGCTACGACGGGATT
B15: GCAGGGA (DNA:RNA)
RNA: B1 RNA with C25G, A26C, C27A, C29G, U30G
DNA 1: CAATCTGAATTCCGGTCTCCC
DNA 2: TGGTGGCTACGACGGGATT
B16: CCCUGAU (DNA:RNA)
RNA: B1 RNA with A26C, G28U, C29G, U30A, A31U
DNA 1: CAATCTGAATTCCGGTCTCCC
DNA 2: TGGTGGCTACGACGGGATT
B17: GCAGUUC (DNA:RNA)
RNA: B1 RNA with C25G, A26C, C27A, C29U, A31C
DNA 1: CAATCTGAATTCCGGTCTCCC
DNA 2: TGGTGGCTACGACGGGATT
B18: CUGCAUU (DNA:RNA)
RNA: B1 RNA with A26U, C27G, G28C, C29A, A31U
DNA 1: CAATCTGAATTCCGGTCTCCC
DNA 2: TGGTGGCTACGACGGGATT
B19: GCGCGAC (DNA:RNA)
RNA: GGGAGACCGGAAUUCAGAUUGUCCGCGCGACUUAAAUCCCGUCGUAGCCACCA
DNA 1: CAATCTGAATTCCGGTCTCCC
DNA 2: TGGTGGCTACGACGGGATT
B20: ACAUCGG (DNA:RNA)
RNA: B1 RNA with C25A, A26C, C27A, G28U, U30G, A31G
DNA 1: CAATCTGAATTCCGGTCTCCC
DNA 2: TGGTGGCTACGACGGGATT
B21: CCGCCUG (DNA:RNA)
RNA: B1 RNA with A26C, C27G, G28C, A31G
DNA 1: CAATCTGAATTCCGGTCTCCC
DNA 2: TGGTGGCTACGACGGGATT
B22: ACGGCUC (DNA:RNA)
RNA: B1 RNA with C25A, A26C, C27G, A31C
DNA 1: CAATCTGAATTCCGGTCTCCC
DNA 2: TGGTGGCTACGACGGGATT
B23: GUGUAGA (DNA:RNA)
RNA: B19 RNA with C26U, C28U, G29A, A30G, C31A
DNA 1: CAATCTGAATTCCGGTCTCCC
DNA 2: TGGTGGCTACGACGGGATT
B24: GCACCAA (DNA:RNA)
RNA: B19 RNA with G27A, G29C, C31A
DNA 1: CAATCTGAATTCCGGTCTCCC
DNA 2: TGGTGGCTACGACGGGATT
B25: GUCAUGG (DNA:RNA)
RNA: B1 RNA with C25G, A26U, G28A, C29U, U30G, A31G
DNA 1: CAATCTGAATTCCGGTCTCCC
DNA 2: TGGTGGCTACGACGGGATT
B26: AUGGAGC (DNA:RNA)
RNA: B19 RNA with G25A, C26U, C28G, G29A, A30G
DNA 1: CAATCTGAATTCCGGTCTCCC
DNA 2: TGGTGGCTACGACGGGATT
B27: UGGAGAU (DNA:RNA)
RNA: B19 RNA with G25U, C26G, C28A, C31U
DNA 1: CAATCTGAATTCCGGTCTCCC
DNA 2: TGGTGGCTACGACGGGATT
B28: GCCAAGC (DNA:RNA)
RNA: B19 RNA with G27C, C28A, G29A, A30G
DNA 1: CAATCTGAATTCCGGTCTCCC
DNA 2: TGGTGGCTACGACGGGATT
B29: UACUAGC (DNA:RNA)
RNA: B1 RNA with C25U, G28U, C29A, U30G, A31C
DNA 1: CAATCTGAATTCCGGTCTCCC
DNA 2: TGGTGGCTACGACGGGATT
B30: AACGGGA (DNA:RNA)
RNA: B1 RNA with C25A, C29G, U30G
DNA 1: CAATCTGAATTCCGGTCTCCC
DNA 2: TGGTGGCTACGACGGGATT
B31: CACCAAG (DNA:RNA)
RNA: B1 RNA with G28C, C29A, U30A, A31G
DNA 1: CAATCTGAATTCCGGTCTCCC
DNA 2: TGGTGGCTACGACGGGATT

For this test, the target named is T1, RBFOX1 RRM. In words: EMSA; HiTS-Eq, 1 nM pool, 10 min; buffer printed only for the single-RNA assays: 10 mM Tris pH 7.5, 150 mM NaCl, 3.4 mM EDTA, 0.001% NP-40, 30 C. Conditions: tags: His6 N-terminal (pET28a); label: 5' 32P. An outline of the steps: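 A pool of RNA with 7 randomized nucleotides, 5′-radiolabelled and with DNA-annealed flanks, was equilibrated at 1 nM for 10 min in 50 µL with purified RbFox RRM, wild type or mutant, across increasing protein concentrations. Free RNA was separated by 8% native PAGE, excised, reverse-transcribed, barcoded by PCR and sequenced. Relative association constants were obtained from read-count changes of each RNA species versus the control reaction and normalised to the cognate motif.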
For B1, the binding signal was 0.00504 KA relative to UGCAUGU. Then B2, with 0.00306 KA relative to UGCAUGU. Then B3, with 0.00206 KA relative to UGCAUGU; and B4, with 0.0114 KA relative to UGCAUGU.

In the case of B5, the binding signal is 0.00859 KA relative to UGCAUGU. Then B6, with 0.00893 KA relative to UGCAUGU.

B7: the binding signal was 0.0103 KA relative to UGCAUGU.

Turning to B8, the binding signal was 0.0117 KA relative to UGCAUGU. As to B9, the binding signal was 0.00558 KA relative to UGCAUGU. Then B10, with 0.0139 KA relative to UGCAUGU. The figure for B11 is 0.0198 KA relative to UGCAUGU.

Take B12: the binding signal was 0.00776 KA relative to UGCAUGU. The figure for B13 is 0.017 KA relative to UGCAUGU. The figure for B14 is 0.0161 KA relative to UGCAUGU; for B15 it is 0.0126 KA relative to UGCAUGU; for B16 it is 0.0113 KA relative to UGCAUGU.

For B17, the binding signal is 0.0108 KA relative to UGCAUGU. On to B18, for which the binding signal is 0.0136 KA relative to UGCAUGU. The figure for B19 is 0.00894 KA relative to UGCAUGU.

Turning to B20, the binding signal is 0.00389 KA relative to UGCAUGU.

Take B21: the binding signal was 0.0178 KA relative to UGCAUGU.

As for B22, the binding signal is 0.0105 KA relative to UGCAUGU. Then B23, with 0.0144 KA relative to UGCAUGU. Then B24, with 0.00836 KA relative to UGCAUGU; and B25, with 0.0107 KA relative to UGCAUGU. The figure for B26 is 0.00976 KA relative to UGCAUGU; for B27 it is 0.0283 KA relative to UGCAUGU. Regarding B28, the binding signal was 0.0064 KA relative to UGCAUGU.

Take B29: the binding signal was 0.0104 KA relative to UGCAUGU. With B30, the binding signal is 0.00903 KA relative to UGCAUGU. Then B31, with 0.00342 KA relative to UGCAUGU.
